Source: patent US8883798B2, “Pyrimidine compounds inhibiting the formation of nitric oxide and prostaglandin E2, method of production thereof and use thereof” (Ustav Organicke Chemie a Biochemie Akademie Ved CR, V.V.I., priority 2011, dated 2014)
At least one structure is not confirmed: it was looked up by name or label, or the drawing left a doubt.

test system: production of nitric oxide (NO); experiment: Production of nitric oxide (NO) in cultures of mouse peritoneal cells stimulated with IFN-γ plus LPS (Griess reagent); type: cell-based, mice; settings: Table 3A; IFN-g plus LPS; 24 h
Protocol: (§1) Under in vitro conditions, the effect of the pyrimidine compounds according to this invention was tested in terms of the production of nitric oxide (NO) and in terms of the production of prostaglandin E2 (PGE2) in cultures of the peritoneal cells of mice.
NO is a product of the metabolism of L-arginine, quickly changes to […], which are then measured using the Griess reagent system. Under normal conditions, the production of NO is practically zero. It only occurs after some stimulation. In these experiments, interferon-gamma (IFN-γ) and bacterial lipopolysacharide (LPS) were used as stimulators. The values of NO induced in this way fluctuated in the individual experiments in a range from 52 to 89 μmol·l^−1; for the purposes of comparison between the experiments they were considered as 100%. The production of NO after the application of the substances was expressed in percentage with respect to the control values. (The lower the value, the higher the inhibition effect of the substances on NO production.) IC50 are the concentrations of the substances reducing the production of NO by 50% with respect to the controls.
(§2) Experiments were performed on mice peritoneal cells C57BL/6 (Charles River, Germany—AnLabu).
(§3) NO production was induced using IFN-g (5000 pg/mL) plus LPS (100 pg/mL); evaluated (Griess reagent) after 24 h of the cell cultivation (2×10^6/mL). PGE2 was induced using LPS (10 ng/mL); evaluated (ELISA) following 6 h cultivation of cells (3×10^6/mL). Cell longevity was evaluated using WST-1 (tetrazolium salt), following 24 h cultivation of cells (1×10^6/mL). The values mentioned in the table represent the effects of the substances tested in a concentration of 50 μmol·l^−1.

Row | Structure (SMILES) | Production of nitric oxide IC50 (μmol · 1^−1) average value and range of values
1 | CCc1c(Cl)nc(N=CN(C)C)nc1Cl [Substance 14] | 13.6/11.8-15.7/ μmol · 1^−1
2 | CCCc1c(Cl)nc(N=CN(C)C)nc1Cl [Substance 15] | 14.9/9.7-23.0/ μmol · 1^−1
3 | CC(C)c1c(Cl)nc(N=CN(C)C)nc1Cl [Substance 16] | 8.6/6.6-11.9/ μmol · 1^−1
4 | C=CCc1c(Cl)nc(N=CN(C)C)nc1Cl [Substance 17] | 3.3/2.7-4.1/ μmol · 1^−1
5 | C#CCc1c(Cl)nc(N=CN(C)C)nc1Cl [Substance 18] | 4.2/3.5-5.2/ μmol · 1^−1
6 | CCCCc1c(Cl)nc(N=CN(C)C)nc1Cl [Substance 19] | 5.1/4.2-6.3/ μmol · 1^−1
7 | CCC(C)c1c(Cl)nc(N=CN(C)C)nc1Cl (centres unmarked) [Substance 21] | 2.6/2.1-3.1/ μmol · 1^−1
8 | CN(C)C=Nc1nc(Cl)c(Cc2ccccc2)c(Cl)n1 [Substance 23] | 3.4/2.9-4.0/ μmol · 1^−1
9 | CN(C)C=Nc1nc(Cl)c(-c2ccccc2)c(Cl)n1 [Substance 24] | 7.1/4.7-10.7/ μmol · 1^−1
10 | CCc1c(Cl)nc(N)nc1Cl [Substance 26] | 146/99-213/ μmol · 1^−1
11 | CCC(C)c1c(Cl)nc(N)nc1Cl (centres unmarked) [Substance 30] | 160/62-413/ μmol · 1^−1
12 | C=CCc1c(Cl)nc(N)nc1Cl [Substance 32] | 145/173-289/ μmol · 1^−1
13 | CCC(C)c1c(I)nc(N)nc1I (centres unmarked) [Substance 36] | 11.0/5.7-21.5/ μmol · 1^−1
14 | CCC(C)c1c(Cl)nc(N)nc1I (centres unmarked) [Substance 37] | 14.0/8.0-24.6/ μmol · 1^−1
15 | Nc1nc(Cl)c(Cc2ccccc2)c(I)n1 [Substance 39] | 24.6/16.7-36.1/ μmol · 1^−1
16 | Nc1nc(Br)c(Cc2ccccc2)c(Br)n1 [Substance 40] | 26.1/16.9-40.3/ μmol · 1^−1

Row | Structure (SMILES) | Production of nitric oxide IC50 (μmol · 1^−1) average value and range of values
17 | CCCCc1c(Cl)nc(N)nc1-c1ccccc1 [Substance 41] | 44.3/20.9-94.1/ μmol · 1^−1
18 | CCCCc1c(Cl)nc(N)nc1-c1ccsc1 [Substance 42] | 85.6/48.5-150.9/ μmol · 1^−1
19 | CCCCc1c(Cl)nc(N)nc1-c1cccnc1 [Substance 43] | 67.8/44.4-103.7/ μmol · 1^−1
20 | CCCCc1c(Cl)nc(N)nc1-c1cc2ccccc2o1 [Substance 44] | 68.6/39.0-120.7/ μmol · 1^−1
21 | CCCCc1c(-c2ccccc2)nc(N)nc1-c1ccccc1 [Substance 45] | 111.8/62.3-200.7/ μmol · 1^−1
22 | CCCCc1c(-c2cccnc2)nc(N)nc1-c1cccnc1 [Substance 46] | 92.5/42.8-199.5/ μmol · 1^−1
23 | CCCCc1c(-c2cc3ccccc3o2)nc(N)nc1-c1cc2ccccc2o1 [Substance 47] | 20.5/12.1-34.8/ μmol · 1^−1
24 | CCc1c(Cl)nc(NC=O)nc1Cl [Substance 49] | 11.5/8.0-16.4/ μmol · 1^−1
25 | CCCc1c(Cl)nc(NC=O)nc1Cl [Substance 50] | 11.6/8.5-15.8/ μmol · 1^−1
26 | CCCCc1c(Cl)nc(NC=O)nc1Cl [Substance 51] | 3.9/2.8-5.4/ μmol · 1^−1
27 | CC(C)c1c(Cl)nc(NC=O)nc1Cl [Substance 53] | 2.8/1.8-4.2/ μmol · 1^−1
28 | CCCCCCc1c(Cl)nc(NC=O)nc1Cl [Substance 55] | 12.6/6.9-23.2/ μmol · 1^−1
29 | O=CNc1nc(Cl)c(-c2ccccc2)c(Cl)n1 [Substance 56] | 2.8/1.9-3.9/ μmol · 1^−1
30 | C=CCc1c(Cl)nc(NC=O)nc1Cl [Substance 57] | 1.1/1.0-1.3/ μmol · 1^−1
31 | C#CCc1c(Cl)nc(NC=O)nc1Cl [Substance 58] | 1.9/1.3-2.9/ μmol · 1^−1
32 | O=CNc1nc(Cl)c(Cc2ccccc2)c(Cl)n1 [Substance 59] | 2.9/2.3-3.7/ μmol · 1^−1

same assay, conditions: Table 3B; substance 50 μmol·l^−1; IFN-g plus LPS; 24 h

Row | Structure (SMILES) | Production of nitric oxide in % of the controls
33 | CCCCc1c(Cl)nc(N)nc1-c1cccs1 [Substance 93] | 59.51 ± 6,63; n = 4 % of the controls

test system: production of prostaglandin E2 (PGE2); experiment: Production of prostaglandin E2 (PGE2) in cultures of mouse peritoneal cells stimulated with LPS (ELISA kit); type: cell-based, mice; settings: Table 3B, 6 h
Protocol: as §1
The influence on the production of prostaglandin E2 (PGE2) in vitro caused by the activity of the pyrimidine compounds according to the submitted invention was determined in cultures of the peritoneal cells of mice using a commercial kit (R&DSystems). The concentrations of PGE2 after lipopolysacharide (LPS) stimulation reached in the individual experiments values in a range of 22 to 91 ng·ml^−1 and for the purposes of comparison between the experiments were considered as 100%. The influence of the substances on the production of PGE2 was evaluated in percentage with respect to the control values.
as §2, §3

Row | Structure (SMILES) | Production of prostaglandins IC50 (μmol · 1^−1) average value and range of values
34 | CCCCc1c(-c2cccnc2)nc(N)nc1-c1cccnc1 [Substance 81] | 51.26/0.45; n = 2 μmol · 1^−1
35 | CCCCc1c(-c2ccncc2)nc(N)nc1-c1ccc(OC)cc1 [Substance 83] | 82.76/2.12; n = 2 μmol · 1^−1
36 | CCCCc1c(-c2ccncc2)nc(N)nc1-c1cccnc1 [Substance 84] | 77.37/9.47; n = 2 μmol · 1^−1
37 | CCCCc1c(Cl)nc(N)nc1-c1ccncc1 [Substance 85] | 61.11/0.00; n = 2 μmol · 1^−1

test system: not listed separately; experiment: Pilot toxic-kinetic study, single per-oral administration; settings: female Wistar rats; single per-oral dose 800 mg/kg; plasma

Row | Structure (SMILES) | Tmax = sampling time of Cmax [h]
38 | CCCCc1c(Cl)nc(N)nc1Cl [Substance 28] | 6.0
